Assay results reported in PubChem BioAssay AID686978 (National Center for Advancing Translational Sciences (NCATS), 2013).
“And” between values parts separate entries of the source, which are not always exact repeats. Identical values can stand only once. In all, about 420,000 compounds went through this assay and about 64,000 (15%) were called active. Inconclusive results, whose numbers are uncertain, are shown with a selection of clear calls. Calls come from the whole dose curve; as a rule, active = well fitted inhibition curve with a large enough effect; inconclusive = small, poorly fitted or top-dose-only effect; inactive = flat fitted curve, though single readings scatter. Potencies beside an inconclusive call are fits to weak or partial responses and may not hold up. Square brackets hold non-standard residues; d marks the D form. Peptide text beside a SMILES is read from it. * marks the point of attachment. ξ: configuration not given here. ξF = NC(Cc1ccccc1)C(=O)O; Cbz = O=C(OCc1ccccc1)*

Experiment: qHTS for Inhibitors of human tyrosyl-DNA phosphodiesterase 1 (TDP1): qHTS in cells in absence of CPT; note: nearly all actives have a fitted effect of over 55% in size
Conditions: DT40 Tdp1-/- hTDP1 cells, no CPT, ATP luminescence, 48 h; activity change, negative = growth inhibition: at 46.2 µM (top of the series) unless noted
Procedure, shortened: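 Luminescent ATP content (CellTiter-Glo) served as the growth readout. Knockout chicken DT40 cells expressing human TDP1 were exposed to compounds without camptothecin for a minimum 48 hr at 37 °C.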
% is set by controls: 0 for no effect and ±100 for the full control effect; potency is the fitted concentration of half-maximal effect; tags give direction and shape of the fitted curve.

Row | SMILES | activity change, negative = growth inhibition | Potency
1 | Cc1occc1C(=O)Nc1cccc(Cl)c1Cl | inactive: -0.216% | 
2 | Cc1[nH]c2ccccc2c1C(=O)CSC(=S)N1CCOCC1 | inactive: -17.5% | 
3 | COc1ccc(CCN2Cc3c(cccc3[N+](=O)[O-])C2=O)cc1OC |  | inconclusive: 7.31 µM [inhibitor, single point]
4 | Cc1cc(=O)[nH]c(SCCOc2cccc(C(F)(F)F)c2)n1 |  | inconclusive: 18.4 µM [inhibitor, partial curve]
5 | O=C(Nc1ccc(Br)cc1)c1cccc(NC(=O)C2C3CC4OC(=O)C2C4C3)c1 (stereo not drawn) |  | inconclusive: 8.2 µM [inhibitor, partial curve, poor fit]
6 | CCc1cc(=O)oc2c(CNCc3ccccc3F)c(O)c(Cl)cc12 |  | inconclusive: 23.1 µM [inhibitor, single point]
7 | Cc1nn(-c2ccccc2)c(N)c1Sc1ccc([N+](=O)[O-])cc1 |  | active: 14.6 µM
8 | COCc1ccc2oc(C(=O)O)cc2c1 |  | active: 23.1 µM
9 | COc1ccc(N2CCN(C(=O)CSc3nc4ccccc4nc3Cc3ccc(Cl)cc3)CC2)cc1 |  | inconclusive: 25.9 µM [inhibitor, single point]
10 | COc1cccc(OC)c1C(=O)NC(=S)Nc1ccc(N2CCOCC2)c(Cl)c1 |  | inconclusive: 8.2 µM [inhibitor, partial curve]
11 | COc1ccccc1-c1nnc(SCC(=O)Nc2cccnc2Cl)n1C | inactive: -15.4% | 
12 | CC(C)N1CCc2c(sc(NC(=O)c3ccc(S(=O)(=O)N4CCCCC4C)cc3)c2C(N)=O)C1 (stereo not drawn) |  | inconclusive: 29.1 µM [inhibitor, single point]
13 | CCOc1ccc(OCc2ccc(C(=O)Nc3cccc(C)n3)o2)cc1 |  | inconclusive: 18.4 µM [inhibitor, single point]
14 | Cc1ccc(N(CC(O)Cn2nc(C)cc2C)S(=O)(=O)c2ccc3ccccc3c2)cc1 (stereo not drawn) |  | active: 18.4 µM
15 | Cc1c(C(=O)N2CCOCC2)sc2ncnc(N3CCc4ccccc4C3)c12 |  | active: 11.6 µM
16 | CC(C)Oc1cc(F)ccc1-c1cc(C(=O)NCc2ccccn2)[nH]n1 |  | inconclusive: 25.9 µM [inhibitor, single point]
17 | CC(C)c1ccc(/C=C/C(=O)NNC(=O)c2cccnc2)cc1 | inactive: -19.6% | 
18 | Cc1ccc(O)c(NC(=O)CCC2CCCCC2)c1 |  | inconclusive: 16.4 µM [inhibitor, single point]
19 | Cc1c(C(=O)NCCc2ccc(Cl)cc2)cccc1-n1cnc2cccnc21 |  | active: 13 µM
20 | CCOC(=O)c1cc2sccc2n1CC(=O)N1CCCC1 | inactive: -15.2% | 
21 | COc1ccc(NC(=O)c2c(N)c(C(=O)c3ccc(OC)cc3)n3ccccc23)cc1 |  | inconclusive: 10.3 µM [inhibitor, single point]
22 | O=C(N/N=C/c1ccc(Sc2nc3ccccc3s2)c([N+](=O)[O-])c1)c1ccccn1 | inactive: -23.9% | 
23 | CCCCn1c(N)c(N(Cc2ccccc2OC)C(=O)C(C)Oc2cccc(Cl)c2)c(=O)[nH]c1=O (stereo not drawn) |  | inconclusive: 29.1 µM [inhibitor, single point]

Row | SMILES | activity change, negative = growth inhibition | Potency
24 | CCCn1c(/C=C/c2ccccc2)nc2ccccc21 |  | active: 20.6 µM and active: 23.1 µM
25 | Cc1ccc(C)c(OCCC(=O)N2CCN(S(=O)(=O)c3cc(F)ccc3F)CC2)c1 |  | inconclusive: 29.1 µM [inhibitor, single point]
26 | Cc1cc(C(=O)N2CCc3c([nH]c4ccccc34)C2c2cccc(Cl)c2)nn1C (stereo not drawn) |  | inconclusive: 29.1 µM [inhibitor, single point]
27 | CCOc1ccc(N(C)S(=O)(=O)c2ccc(-c3cc(C)no3)s2)cc1 |  | active: 4.11 µM
28 | O=C(Nc1nnc([C@H]2C[C@H](O)[C@@H](CO)O2)s1)Nc1ccccc1C(F)(F)F | inactive: -1.67% | 
29 | CCn1c2ccccc2c2cc(CN3CCN(Cc4ccc(OC)c(OC)c4)CC3)ccc21 |  | active: 23.1 µM
30 | CCC(=O)N1CC2(c3ccccc3)CN(C(=O)CC)CC(c3ccccc3)(C1)C2=O | inactive: 31.5% | 
31 | COc1ccc(Cn2c(=O)[nH]c3cc(C(=O)N4CCN(Cc5ccccc5)CC4)ccc3c2=O)cc1 |  | active: 18.4 µM
32 | CC(C)c1ccc(NC2CCCN(C(=O)CCc3cn[nH]c3)C2)cc1 (stereo not drawn) |  | inconclusive: 7.31 µM [inhibitor, single point]
33 | CC1CCCN(C(=O)C2CC(=O)N(c3ccc(Cl)cc3)C2)C1 (stereo not drawn) |  | inconclusive: 18.4 µM [inhibitor, single point]
34 | O=C(Nc1cccc(-c2nc3cccnc3s2)c1)C1c2ccccc2Oc2ccccc21 |  | inconclusive: 29.1 µM [inhibitor, single point]
35 | Cc1nc(CNS(=O)(=O)c2cc(C)c(C)cc2C)cs1 |  | inconclusive: 29.1 µM [inhibitor, single point]
36 | COC(=O)c1sc(NC(=O)C2c3ccccc3Oc3ccccc32)c(C(=O)OC)c1C |  | inconclusive: 13 µM [inhibitor, partial curve, poor fit]
37 | Cc1ccc(S(=O)(=O)NCCC(=O)NCCc2ccc(S(N)(=O)=O)cc2)cc1C | inactive: -23.2% | 
38 | Cc1nn(CC(=O)NCC(C)c2ccccc2)c(=O)c2cc(-c3ccccc3)nn12 (stereo not drawn) |  | inconclusive: 11.6 µM [inhibitor, partial curve, poor fit]
39 | Cc1ccccc1Nc1c([N+](=O)[O-])ccc2nonc12 | inactive: -9.27% | 
40 | COc1ccc(C)cc1NC(=O)C1CCCN(S(=O)(=O)c2ccc3c(c2)CCCN3C(C)=O)C1 (stereo not drawn) |  | inconclusive: 29.1 µM [inhibitor, single point]
41 | Cc1oc(-c2ccc(-c3ccccc3)cc2)nc1CN(CCO)C(C)C |  | inconclusive: 23.1 µM [inhibitor, single point]
42 | CCC(C)NS(=O)(=O)c1ccc(N2CCCCS2(=O)=O)cc1 (stereo not drawn) |  | inconclusive: 18.4 µM [inhibitor, partial curve]
43 | Cc1cccc(/C=N/NC(=O)c2ccc(Br)cc2)c1 | inactive: -7.16% | 
44 | Cc1ccc(-c2nnc(Cc3ccc([N+](=O)[O-])cc3)o2)cc1 |  | inconclusive: 29.1 µM [inhibitor, single point]
45 | Cc1nn2c(N3CCN(C)CC3)cc(C(C)(C)C)nc2c1-c1ccccc1 |  | inconclusive: 29.1 µM [inhibitor, single point]
46 | CCOC(=O)CNC(=O)C(Cc1ccccc1)NC(=O)OCc1ccccc1 (stereo not drawn) (Cbz-[ξF]-Gly-OEt) |  | inconclusive: 29.1 µM [inhibitor, single point]

Row | SMILES | activity change, negative = growth inhibition | Potency
47 | CCOC(=O)c1cc2sccc2n1CCCN1C(=O)c2ccccc2C1=O |  | inconclusive: 16.4 µM [inhibitor, single point]
48 | COc1cc(OC)cc(C(=O)NC(C(=O)N2CCc3ccccc3C2)C(C)C)c1 (stereo not drawn) |  | inconclusive: 32.6 µM [inhibitor, partial curve, poor fit]
49 | CCOC(=O)[C@H]1[C@H]2COc3cc(OC)ccc3[C@@H]2N2C(=O)CN(Cc3ccc(Cl)cc3)C(=O)[C@@]12C |  | inconclusive: 25.9 µM [inhibitor, single point]
50 | Fc1cccc(NCc2ccccc2-c2nnc(-c3ccccc3Cl)o2)c1 |  | inconclusive: 25.9 µM [inhibitor, single point]
51 | O=C(c1cc2nc(-c3ccco3)cc(C(F)(F)F)n2n1)N1CCc2ccccc2C1 |  | active: 23.1 µM
52 | O=C1c2ccccc2NC(c2ccc(O)cc2)N1Cc1ccco1 (stereo not drawn) |  | inconclusive: 17.8 µM [inhibitor, single point]
53 | CC(C)[C@H](NC(=O)c1ccccc1)C(=O)OCc1nc2scc(-c3ccccc3)c2c(=O)[nH]1 |  | inconclusive: 29.1 µM [inhibitor, single point]
54 | Cc1cccc(OCC(=O)Nc2ccc(N3CCN(C(=O)c4ccccc4)CC3)cc2)c1C |  | inconclusive: 3.66 µM [inhibitor, full curve]
55 | COC(=O)c1cc(C(=O)Nc2nc3ccccc3[nH]2)cc([N+](=O)[O-])c1 |  | active: 23.1 µM
56 | CC1CCN(c2ccc(C(=O)N3CCOCC3)cc2[N+](=O)[O-])CC1 |  | inconclusive: 8.2 µM [inhibitor, partial curve]
57 | NC(=O)c1ccsc1NC(=O)c1ccc(S(=O)(=O)N2CCCC2)cc1 |  | inconclusive: 29.1 µM [inhibitor, single point]
58 | O=C(COc1ccccc1[N+](=O)[O-])N(Cc1ccco1)C1CCS(=O)(=O)C1 (stereo not drawn) | inactive: 16.5% | 
59 | COCCCn1c(=NC(=O)c2ccncc2)c(C#N)cc2c(=O)n3cccc(C)c3nc21 |  | inconclusive: 20.6 µM [inhibitor, single point]
60 | CC1(C)CC(NC(=O)c2ccc(Br)o2)CC(C)(C)N1 | inactive: -1.05% | 
61 | CCCCOc1ncnc2c1[nH]c1ccc(F)cc12 |  | active: 8.2 µM
62 | CC(C)CC1Nc2ncnc(N3CCN(c4ccccn4)CC3)c2N(Cc2ccc(Br)cc2)C1=O (stereo not drawn) |  | inconclusive: 29.1 µM [inhibitor, single point] and inconclusive: 20.6 µM [inhibitor, single point]
63 | CC(C)(C)C(=O)c1c(N)[nH]c(C(=O)c2ccccc2)c1-c1ccc(Cl)cc1Cl |  | inconclusive: 14.6 µM [inhibitor, partial curve]
64 | CCCCCC(=O)N1C[C@@H](n2cc(-c3ccc(F)cc3)nn2)[C@H](O)C[C@@H]1c1ccc(C)cc1 |  | active: 8.2 µM
65 | CCCCC1S/C(=N/N=C/c2cccs2)NC1=O (stereo not drawn) |  | active: 18.4 µM
66 | CC(=O)Nc1ccc(NC(=S)NC(=O)c2ccc([N+](=O)[O-])cc2)cc1 | inactive: -6.48% | 
67 | CC(C)n1nc(C(=O)Oc2cc(Cl)ccc2Cl)c2ccccc2c1=O |  | inconclusive: 29.1 µM [inhibitor, single point]
68 | COc1cc(OC)c2nc(-c3cc4c(c(OC)c3)OCCN(Cc3cn(C)nc3C)C4)cc(C)c2c1 |  | inconclusive: 16.4 µM [inhibitor, partial curve]
